# Laboratory results taken from the supplement of paper PMC8728848.
# The list shows a part of the results.
# B1: MAL-II (Maackia amurensis), P93248 (protein)
# chain: ATSNSKPTQVLLATFLTFFFLLLNNVNSSDELSFTINNFVPNEADLLFQGEASVSSTGVLQLTRVENGQPQQYSVGRALYAAPVRIWDNTTGSVASFSTSFTFVVKAPNPTITSDGLAFFLAPPDSQIPSGRVSKYLGLFNNSNSDSSNQIVAVEFDTYFGHSYDPWDPNYRHIGIDVNGIESIKTVQWDWINGGVAFATITYLAPNKTLIASLVYPSNQTSFIVAASVDLKEILPEWVRVGFSAATGYPTQVETHDVLSWSFTSTLEANSDAATENNVHIARYTA
# Tests used:
# Assay in all cases: glycan array binding signal (z-score within array); higher = stronger binding
# Conditions in all cases: glycan notation: IUPAC condensed, linker removed
# [1] = target: Gal(b1-4)GlcNAc(b1-2)Man
# Outline: (§1)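 Negative Z-scores can be read as non-binding. The Z-score is calculated within each array and then averaged across arrays of one protein sequence at different concentrations or buffers and across linkers. Arrays, 3228 in all, were curated from the Consortium for Functional Glycomics database and kept only where the protein sequence was available.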
# [2] = target: Gal(b1-4)GlcNAc(b1-2)Man(a1-3)Man(b1-4)GlcNAc(b1-4)GlcNAc
# Outline: as §1
# [3] = target: Gal(b1-4)GlcNAc(b1-2)Man(a1-3)[Gal(b1-4)GlcNAc(b1-2)Man(a1-6)]Man(b1-4)GlcNAc(b1-4)GlcNAc
# Outline: as §1
# [4] = target: Gal(b1-4)GlcNAc(b1-2)Man(a1-3)[Gal(b1-4)GlcNAc(b1-2)Man(a1-6)]Man(b1-4)GlcNAc(b1-4)[Fuc(a1-6)]GlcNAc
# Outline: as §1
# [5] = target: Gal(b1-4)GlcNAc(b1-2)Man(a1-3)[Gal(b1-4)GlcNAc(b1-2)Man(a1-6)][Gal(b1-4)GlcNAc(b1-4)]Man(b1-4)GlcNAc(b1-4)[Fuc(a1-6)]GlcNAc
# Outline: as §1
# [6] = target: Gal(b1-4)GlcNAc(b1-2)Man(a1-3)[Gal(b1-4)GlcNAc(b1-2)Man(a1-6)][GlcNAc(b1-4)]Man(b1-4)GlcNAc(b1-4)[Fuc(a1-6)]GlcNAc
# Outline: as §1
# [7] = target: Gal(b1-4)GlcNAc(b1-2)Man(a1-3)[GlcNAc(b1-2)Man(a1-6)]Man(b1-4)GlcNAc(b1-4)GlcNAc
# Outline: as §1
# [8] = target: Gal(b1-4)GlcNAc(b1-2)Man(a1-3)[GlcNAc(b1-4)][Gal(b1-4)GlcNAc(b1-2)Man(a1-6)]Man(b1-4)GlcNAc(b1-4)GlcNAc
# Outline: as §1
# [9] = target: Gal(b1-4)GlcNAc(b1-2)Man(a1-3)[Man(a1-6)]Man(b1-4)GlcNAc(b1-4)GlcNAc
# Outline: as §1
# [10] = target: Gal(b1-4)GlcNAc(b1-2)Man(a1-6)Man(b1-4)GlcNAc(b1-4)GlcNAc
# Outline: as §1
# [11] = target: Gal(b1-4)GlcNAc(b1-2)Man(a1-6)[GlcNAc(b1-2)Man(a1-3)]Man(b1-4)GlcNAc(b1-4)GlcNAc
# Outline: as §1
# [12] = target: Gal(b1-4)GlcNAc(b1-2)Man(a1-6)[Man(a1-3)]Man(b1-4)GlcNAc(b1-4)GlcNAc
# Outline: as §1
# [13] = target: Gal(b1-4)GlcNAc(b1-2)[Gal(b1-4)GlcNAc(b1-4)]Man(a1-3)[Gal(b1-4)GlcNAc(b1-2)Man(a1-6)]Man(b1-4)GlcNAc(b1-4)GlcNAc
# Outline: as §1
# [14] = target: Gal(b1-4)GlcNAc(b1-2)[Gal(b1-4)GlcNAc(b1-4)]Man(a1-3)[Gal(b1-4)GlcNAc(b1-2)[Gal(b1-4)GlcNAc(b1-6)]Man(a1-6)]Man(b1-4)GlcNAc(b1-4)GlcNAc
# Outline: as §1
# [15] = target: Gal(b1-4)GlcNAc(b1-2)[Gal(b1-4)GlcNAc(b1-4)]Man(a1-3)[GlcNAc(b1-4)][Gal(b1-4)GlcNAc(b1-2)Man(a1-6)]Man(b1-4)GlcNAc(b1-4)GlcNAc
# Outline: as §1
# [16] = target: Gal(b1-4)GlcNAc(b1-2)[Gal(b1-4)GlcNAc(b1-4)]Man(a1-3)[GlcNAc(b1-4)][Gal(b1-4)GlcNAc(b1-2)[Gal(b1-4)GlcNAc(b1-6)]Man(a1-6)]Man(b1-4)GlcNAc(b1-4)GlcNAc
# Outline: as §1
# [17] = target: Gal(b1-4)GlcNAc(b1-2)[Gal(b1-4)GlcNAc(b1-6)]Man(a1-6)[Gal(b1-4)GlcNAc(b1-2)Man(a1-3)]Man(b1-4)GlcNAc(b1-4)GlcNAc
# Outline: as §1
# [18] = target: Gal(b1-4)GlcNAc(b1-2)[Gal(b1-4)GlcNAc(b1-6)]Man(a1-6)[Gal(b1-4)GlcNAc(b1-2)Man(a1-3)]Man(b1-4)GlcNAc(b1-4)[Fuc(a1-6)]GlcNAc
# Outline: as §1
# [19] = target: Gal(b1-4)GlcNAc(b1-2)[Gal(b1-4)GlcNAc(b1-6)]Man(a1-6)[GlcNAc(b1-4)][Gal(b1-4)GlcNAc(b1-2)Man(a1-3)]Man(b1-4)GlcNAc(b1-4)GlcNAc
# Outline: as §1
# [20] = target: Gal(b1-4)GlcNAc(b1-2)[Gal(b1-4)GlcNAc(b1-6)]Man(a1-6)[GlcNAc(b1-4)][Gal(b1-4)GlcNAc(b1-2)[Gal(b1-4)GlcNAc(b1-4)]Man(a1-3)]Man(b1-4)GlcNAc(b1-4)[Fuc(a1-6)]GlcNAc
# Outline: as §1
# [21] = target: Gal(b1-4)GlcNAc(b1-3)Gal(b1-3)GalNAc
# Outline: as §1
# [22] = target: Gal(b1-4)GlcNAc(b1-3)Gal(b1-3)GlcNAc
# Outline: as §1
# [23] = target: Gal(b1-4)GlcNAc(b1-3)Gal(b1-4)Glc
# Outline: as §1
# [24] = target: Gal(b1-4)GlcNAc(b1-3)Gal(b1-4)GlcNAc
# Outline: as §1
# [25] = target: Gal(b1-4)GlcNAc(b1-3)Gal(b1-4)GlcNAc(b1-2)Man(a1-3)[Gal(b1-4)GlcNAc(b1-3)Gal(b1-4)GlcNAc(b1-2)Man(a1-6)]Man(b1-4)GlcNAc(b1-4)GlcNAc
# Outline: as §1
# [26] = target: Gal(b1-4)GlcNAc(b1-3)Gal(b1-4)GlcNAc(b1-2)Man(a1-3)[Gal(b1-4)GlcNAc(b1-3)Gal(b1-4)GlcNAc(b1-2)Man(a1-6)]Man(b1-4)GlcNAc(b1-4)[Fuc(a1-6)]GlcNAc
# Outline: as §1
# [27] = target: Gal(b1-4)GlcNAc(b1-3)Gal(b1-4)GlcNAc(b1-2)[Gal(b1-4)GlcNAc(b1-3)Gal(b1-4)GlcNAc(b1-6)]Man(a1-6)[Gal(b1-4)GlcNAc(b1-3)Gal(b1-4)GlcNAc(b1-2)Man(a1-3)]Man(b1-4)GlcNAc(b1-4)GlcNAc
# Outline: as §1
# [28] = target: Gal(b1-4)GlcNAc(b1-3)Gal(b1-4)GlcNAc(b1-2)[Gal(b1-4)GlcNAc(b1-3)Gal(b1-4)GlcNAc(b1-6)]Man(a1-6)[Gal(b1-4)GlcNAc(b1-3)Gal(b1-4)GlcNAc(b1-2)Man(a1-3)]Man(b1-4)GlcNAc(b1-4)[Fuc(a1-6)]GlcNAc
# Outline: as §1
# [29] = target: Gal(b1-4)GlcNAc(b1-3)Gal(b1-4)GlcNAc(b1-3)Gal(b1-4)GlcNAc
# Outline: as §1
# [30] = target: Gal(b1-4)GlcNAc(b1-3)Gal(b1-4)GlcNAc(b1-3)Gal(b1-4)GlcNAc(b1-2)Man(a1-3)[Gal(b1-4)GlcNAc(b1-3)Gal(b1-4)GlcNAc(b1-3)Gal(b1-4)GlcNAc(b1-2)Man(a1-6)]Man(b1-4)GlcNAc(b1-4)GlcNAc
# Outline: as §1
# [31] = target: Gal(b1-4)GlcNAc(b1-3)Gal(b1-4)GlcNAc(b1-3)Gal(b1-4)GlcNAc(b1-2)Man(a1-3)[Gal(b1-4)GlcNAc(b1-3)Gal(b1-4)GlcNAc(b1-3)Gal(b1-4)GlcNAc(b1-2)Man(a1-6)]Man(b1-4)GlcNAc(b1-4)[Fuc(a1-6)]GlcNAc
# Outline: as §1
# [32] = target: Gal(b1-4)GlcNAc(b1-3)Gal(b1-4)GlcNAc(b1-3)Gal(b1-4)GlcNAc(b1-2)[Gal(b1-4)GlcNAc(b1-3)Gal(b1-4)GlcNAc(b1-3)Gal(b1-4)GlcNAc(b1-6)]Man(a1-6)[Gal(b1-4)GlcNAc(b1-3)Gal(b1-4)GlcNAc(b1-3)Gal(b1-4)GlcNAc(b1-2)Man(a1-3)]Man(b1-4)GlcNAc(b1-4)[Fuc(a1-6)]GlcNAc
# Outline: as §1
# [33] = target: Gal(b1-4)GlcNAc(b1-3)Gal(b1-4)GlcNAc(b1-3)Gal(b1-4)GlcNAc(b1-3)Gal(b1-4)GlcNAc(b1-2)Man(a1-3)[Gal(b1-4)GlcNAc(b1-3)Gal(b1-4)GlcNAc(b1-3)Gal(b1-4)GlcNAc(b1-3)Gal(b1-4)GlcNAc(b1-2)Man(a1-6)]Man(b1-4)GlcNAc(b1-4)GlcNAc
# Outline: as §1
# [34] = target: Gal(b1-4)GlcNAc(b1-3)Gal(b1-4)GlcNAc(b1-3)Gal(b1-4)GlcNAc(b1-3)Gal(b1-4)GlcNAc(b1-2)Man(a1-3)[Gal(b1-4)GlcNAc(b1-3)Gal(b1-4)GlcNAc(b1-3)Gal(b1-4)GlcNAc(b1-3)Gal(b1-4)GlcNAc(b1-2)Man(a1-6)]Man(b1-4)GlcNAc(b1-4)[Fuc(a1-6)]GlcNAc
# Outline: as §1
# [35] = target: Gal(b1-4)GlcNAc(b1-3)Gal(b1-4)GlcNAc(b1-3)Gal(b1-4)GlcNAc(b1-3)Gal(b1-4)GlcNAc(b1-2)[Gal(b1-4)GlcNAc(b1-3)Gal(b1-4)GlcNAc(b1-3)Gal(b1-4)GlcNAc(b1-3)Gal(b1-4)GlcNAc(b1-6)]Man(a1-6)[Gal(b1-4)GlcNAc(b1-3)Gal(b1-4)GlcNAc(b1-3)Gal(b1-4)GlcNAc(b1-3)Gal(b1-4)GlcNAc(b1-2)Man(a1-3)]Man(b1-4)GlcNAc(b1-4)[Fuc(a1-6)]GlcNAc
# Outline: as §1
# [36] = target: Gal(b1-4)GlcNAc(b1-3)Gal(b1-4)GlcNAc(b1-3)Gal(b1-4)GlcNAc(b1-3)Gal(b1-4)GlcNAc(b1-3)Gal(b1-4)GlcNAc(b1-2)Man(a1-3)[Gal(b1-4)GlcNAc(b1-3)Gal(b1-4)GlcNAc(b1-3)Gal(b1-4)GlcNAc(b1-3)Gal(b1-4)GlcNAc(b1-3)Gal(b1-4)GlcNAc(b1-2)Man(a1-6)]Man(b1-4)GlcNAc(b1-4)GlcNAc
# Outline: as §1
# [37] = target: Gal(b1-4)GlcNAc(b1-3)Gal(b1-4)GlcNAc(b1-3)Gal(b1-4)GlcNAc(b1-3)Gal(b1-4)GlcNAc(b1-3)Gal(b1-4)GlcNAc(b1-2)Man(a1-3)[Gal(b1-4)GlcNAc(b1-3)Gal(b1-4)GlcNAc(b1-3)Gal(b1-4)GlcNAc(b1-3)Gal(b1-4)GlcNAc(b1-3)Gal(b1-4)GlcNAc(b1-2)Man(a1-6)]Man(b1-4)GlcNAc(b1-4)[Fuc(a1-6)]GlcNAc
# Outline: as §1
binder,measurement,setting,value
B1,glycan array binding signal (z-score),[1],-0.194
same,glycan array binding signal (z-score),[2],-0.199
same,glycan array binding signal (z-score),[3],-0.218
same,glycan array binding signal (z-score),[4],-0.167
same,glycan array binding signal (z-score),[5],-0.155
same,glycan array binding signal (z-score),[6],-0.223
same,glycan array binding signal (z-score),[7],-0.218
same,glycan array binding signal (z-score),[8],-0.267
same,glycan array binding signal (z-score),[9],-0.218
same,glycan array binding signal (z-score),[10],-0.215
same,glycan array binding signal (z-score),[11],-0.206
same,glycan array binding signal (z-score),[12],-0.196
same,glycan array binding signal (z-score),[13],-0.085
same,glycan array binding signal (z-score),[14],-0.229
same,glycan array binding signal (z-score),[15],-0.183
same,glycan array binding signal (z-score),[16],-0.114
same,glycan array binding signal (z-score),[17],-0.199
same,glycan array binding signal (z-score),[18],-0.175
same,glycan array binding signal (z-score),[19],-0.145
same,glycan array binding signal (z-score),[20],-0.199
same,glycan array binding signal (z-score),[21],-0.039
same,glycan array binding signal (z-score),[22],-0.184
same,glycan array binding signal (z-score),[23],-0.219
same,glycan array binding signal (z-score),[24],-0.223
same,glycan array binding signal (z-score),[25],0.101
same,glycan array binding signal (z-score),[26],0.489
same,glycan array binding signal (z-score),[27],0.262
same,glycan array binding signal (z-score),[28],1.49
same,glycan array binding signal (z-score),[29],-0.24
same,glycan array binding signal (z-score),[30],0.674
same,glycan array binding signal (z-score),[31],1.02
same,glycan array binding signal (z-score),[32],1.29
same,glycan array binding signal (z-score),[33],-0.168
same,glycan array binding signal (z-score),[34],0.653
same,glycan array binding signal (z-score),[35],0.107
same,glycan array binding signal (z-score),[36],-0.179
same,glycan array binding signal (z-score),[37],0.084
